Assay results as given in a collection of fitness landscapes (doi:10.1016/j.celrep.2020.107928).
Over roughly 81,000 sequences, “one-hybrid fitness for binding NBS DNA” has its median near -0.1; the highest 2% begin near 0.36. Some of the results follow.

B1: Caulobacter ParB omega fusion; a variant is named by its letters at X, in order, B8GW30 (parent)
chain: MESVVVGEPGMSEGRRGLGRGLSALLGEVDAAPAQAPGEQLGGSREAPIEILQRNPDQPRRTFREEDLEDLSNSIREKGVLQPILVRPSPDTAGEYQIVAGERAWRAAQRAGLKTVPIMVRELDDLAVLEIGIIENVQRADLNVLEEALSYKVLMEKFERTQENIAQTIGKSXSHVANXMRLLXLPDEVQSYLVSGELTAXHARAIAAAADPVALAKQIIEGGLSVRETEALARKAPNLSAGKSKGGRPPRVKDTDTQALESDLSSVLGLDVSIDHRGSTGTLTITYATLEQLDDLCNRLTRGI

Variants of: B1
Assay: one-hybrid fitness for binding NBS DNA (the Noc-binding site; scaled: cognate 1, non-cognate 0); higher = stronger binding
Conditions: with NBS DNA site
How it was run: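 Selection: bacterial one-hybrid in E. coli USO, HIS3 reporter with the site 19 bp from the promoter, 48 hours at 37°C on M9-minus-histidine plus 0.1 mM IPTG and 5 mM 3-AT. Libraries were Caulobacter ParB with four randomised specificity codons, sequenced on Illumina before and after selection. Fitness is the rescaled log change in variant-to-wild-type read ratio, anchored to the cognate and non-cognate sites.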

one-hybrid fitness for binding NBS DNA, 0.238:
RLFT

one-hybrid fitness for binding NBS DNA, 0.425:
KQKR

one-hybrid fitness for binding NBS DNA, 0.294:
QHCT

one-hybrid fitness for binding NBS DNA, 0.212:
VRCT

one-hybrid fitness for binding NBS DNA, 0.209:
SQWD

one-hybrid fitness for binding NBS DNA, 0.75:
RRTR

one-hybrid fitness for binding NBS DNA, 0.307:
VRGR

one-hybrid fitness for binding NBS DNA, 0.57:
RTHT

one-hybrid fitness for binding NBS DNA, 0.255:
YTRR

one-hybrid fitness for binding NBS DNA, 0.415:
QKRQ

one-hybrid fitness for binding NBS DNA, 0.646:
RRKN

one-hybrid fitness for binding NBS DNA, 0.365:
RRLH

one-hybrid fitness for binding NBS DNA, 0.226:
IMRR

one-hybrid fitness for binding NBS DNA, ≤ 0.2:
TYSK
TSPY
VSVT
LHPP
QCWG
KYEE
HTTM
KMTT
VAMY
DAYG
YMDY
QVWN
LIHT
SGCT
AYLN
PLTV
CGNY
IQWG
QHGG
PHGN
TERT
NPDT
GHMC
GRDF
AMHL
EKMG
VTAY
SCHV
TPMS
HSAT
GNAD
SGLS
WSAM
PSTT
CSYG
PTWM
MIHC
NRTY
TQAW
HMWR
KSFG
AFLI
CQTM
AFFR
RRDP
KGNG
ELKG
PKLS
LTEE
EAQT
PDES
WYTL
HEKR
QQQV
SKNK
QPYV
YCND
PLAT
DCGR
KDMD
GGPL
SHYT
NKHL
MKRC
DDNM
TKWD
PQYT
KVNT
VQIV
SDGE
LVKT
DNNW
LDCV
YHVG
KGNT
TKWA
VSSD
LWSV
QPPC
YPSW
DMKG
SPSS
MCIR
SANK
PRQV
KKFD
NSVS
CQMS
KETM
LYQS
ILAI
GIPT
RQIF
VPGG
EMTR
ATTT
QFKV
TAML
ENQG
SDNC
FKMG
MHTL
VMPE
ADRH
DEQS
MALC
MVNR
RSHM
NGLE
WVER
WPAG
MKKL
DPAC
TNER
HALS
WCTM
TSTI
SRLN
PSTF
RQIH
LEIR
LQNC
EHVS
LYYG
SLPL
RYCF
IRSV
IGAG
PKMC
CFDG
PESL
RWEW
MRHT
TNHP
PCLW
TMTI
WMNG
NNTE
YPAS
HNIG
LPSD
DKHG
FLKS
SLTM
KNCI
PDHD
CNRR
HTVE
TVQT
HISV
DFSR
REDT
CRRN
RTTC
CSCR
TNKF
TPHW
RVDY
TFGT
DHGV
YTFY
IDSN
VLSM
LYPI
PNYL
KHTM
WMLV
ISER
TRSH
YGRT
SFPF
SMFS
ACMS
ENNE
KIYL
SSAH
DGWA
GAEG
GQPG
FLGT
PMYG
AVDV
VFPS
PPLY
RSRW
HLKT
PQLR
DCYR
LPEM
QKVI
VYDG
DIAA
AEVF
NEYT
HWTM
TWLG
TTNY
MNQS
QHCF
PENN
NHQS
RPQY
TRPT
LHSI
QYSD
QTPH
TNHN
AYID
KGVS
VLFD
WEHP
PRCG
RLLF
DAGA
RIEL
LQSS
HVQD
INYL
EDVS
HGSR
PHND
YRNS
SIAT
HTAL
GGNW
CIDR
GWLT
SWWR
FNEG
VPPM
NATL
SATH
QNNF
QADF
SYYR
SGPN
PEHA
EDSC
QQLQ
QNEQ
LHYN
DWLT
FAHL
IITR
KVKL
RRLF
KGSG
PNHY
KLYR
RWHP
HAAE
MEGR
LMFG
GLGS
CSDT
PQSF
KWAL
HSCY
RQLY
PADC
HLGA
AGDV
PDCS
TPQA
HTPI
HAQD
YCAT
AESL
INRG
PGRV
WLVP
VRNW
QSVA
NQPK
LTII
HNPD
GGSI
TKSD
LVPH
HALD
CLNG
TDPD
NYSL
STNL
SCSG
QGTK
NLTV
FLII
GILL
HTLR
QYVA
SHTS

one-hybrid fitness for binding NBS DNA, 0.382:
QRCQ
